In ChEMBL document CHEMBL3508693 one finds Km and Vmax data, which are given here for 1 protein.

Substrate in this data set: COCCCOc1cc(C[C@@H](C[C@H](N)[C@@H](O)C[C@H](C(=O)NCC(C)(C)C(N)=O)C(C)C)C(C)C)ccc1OC
Description: Enzyme kinetics constant (Km value) for CYP3A4 was determined in human liver microsome incubated with [14C]SPP100 hemifumarate. The class given is ADME, microsomes.

B1: Cytochrome P450 3A4 (Homo sapiens) (protein)
chain: MALIPDLAMETWLLLAVSLVLLYLYGTHSHGLFKKLGIPGPTPLPFLGNILSYHKGFCMFDMECHKKYGKVWGFYDGQQPVLAITDPDMIKTVLVKECYSVFTNRRPFGPVGFMKSAISIAEDEEWKRLRSLLSPTFTSGKLKEMVPIIAQYGDVLVRNLRREAETGKPVTLKDVFGAYSMDVITSTSFGVNIDSLNNPQDPFVENTKKLLRFDFLDPFFLSITVFPFLIPILEVLNICVFPREVTNFLRKSVKRMKESRLEDTQKHRVDFLQLMIDSQNSKETESHKALSDLELVAQSIIFIFAGYETTSSVLSFIMYELATHPDVQQKLQEEIDAVLPNKAPPTYDTVLQMEYLDMVVNETLRLFPIAMRLERVCKKDVEINGMFIPKGVVVMIPSYALHRDPKYWTEPEKFLPERFSKKNKDNIDPYIYTPFGSGPRNCIGMRFALMNMKLALIRVLQNFSFKPCKETQIPLKLSLGGLLQPEKPVVLKVESRDGTVSGA
As to B1, the Km amounted to 24.3 µM and the Vmax was 0.0246 µmol/min/mg.
